Test results as given in PubChem BioAssay (NCI).
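Briefly, cells in 96-well plates were exposed to five compound concentrations for 48 h, and endpoints were estimated by linear interpolation. GI50 = concentration required for 50% inhibition of growth. At the TGI there is no net growth.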

The compounds below were run on NCI-H322M lung (assay: NCI tumour cell line growth inhibition, 48 h).

Row | Compound | GI50 | TGI
1 | CCc1ccccc1-c1nc(CN[C@@H]2C[C@@H]3C[C@H]([C@H]2C)C3(C)C)c(C)o1 | 1.97 µM | 5.05 µM
2 | COc1ccccc1/C=C/c1cccc(NC(=S)NCCCCN(C)C)c1 | 13.6 µM | 27.7 µM
3 | CCOc1ccc(-c2cc(-c3cc(C(C)C)c(O)cc3C)nn2-c2ccc(S(N)(=O)=O)cc2)cc1 | 10.4 µM | 22.1 µM
